# The full ranking holds about 33,000 sequences; the median of “E-score (-0.5 to 0.5)” is about -0.017, and the highest 2% start at about 0.3. This is one part of the list.
# Molecular target: T1, Sut1 (UniProt P53032)
# T1 sequence: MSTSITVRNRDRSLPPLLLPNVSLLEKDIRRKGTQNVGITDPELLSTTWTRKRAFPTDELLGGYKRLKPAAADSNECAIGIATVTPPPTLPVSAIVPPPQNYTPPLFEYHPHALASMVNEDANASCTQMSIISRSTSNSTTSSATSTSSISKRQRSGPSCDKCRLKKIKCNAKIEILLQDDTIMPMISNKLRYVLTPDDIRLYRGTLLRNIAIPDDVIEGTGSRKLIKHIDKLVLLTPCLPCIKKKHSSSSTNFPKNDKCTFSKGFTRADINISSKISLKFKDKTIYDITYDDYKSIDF
# Experiment: PBM E-score (8-mer binding enrichment) (E-score (-0.5 to 0.5)); higher = stronger / more preferred TF binding; most listed sequences are background and not binding sites
# Conditions: protein concentration: 200 nM; construct: GST-full length
# Summary of the method: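 GST-tagged yeast TFs (full-length or DNA-binding domain) were made by PURExpress in vitro transcription/translation and applied at about 100-200 nM to universal all-10-mer Agilent arrays. The arrays were made double-stranded by primer extension, on fresh or once-stripped slides. Bound protein was detected with fluorescent anti-GST, and scans were normalised with masliner. Each ungapped eight-base word, pooled with its reverse complement, received an E-score (modified Wilcoxon-Mann-Whitney statistic) from the Universal PBM Analysis Suite.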
row,Sequence,PBM E-score
1,TAGTATCA,0.142
2,CTACATCA,0.0225
3,GCACTGTA,0.123
4,AATGACCT,-0.0653
5,ATTGGAAC,0.22
6,CTCTGTTA,-0.147
7,CCATGGAA,-0.0431
8,GTGTGGAA,0.09
9,AACAGCCA,0.129
10,ACCTCGTG,-0.177
11,CTCTAATA,0.0688
12,ACTTCGCC,-0.0213
13,ATGTCGTC,-0.0778
14,CCACGATA,0.0317
15,CCTTTACA,0.0265
16,GGGCCTAA,-0.0946
17,AAGGATAC,-0.0233
18,CGAGTTCA,-0.149
19,ACGACCGG,-0.0759
20,AAACTGAA,0.171
21,ATTATGTG,0.187
22,AAGGGTTC,0.0271
23,ACTTATTG,0.122
24,CTCGCCTA,-0.0978
25,CACTGTCA,-0.0844

row,Sequence,PBM E-score
1,CGCGAGAA,-0.207
2,CAGGAAAA,-0.0187
3,TACCTAGA,0.0225
4,AAACAAAA,0.197
5,CCCGCAAA,0.1
6,ACAAAAAA,0.264
7,AACTAGGG,-0.0975
8,AACCTAAG,-0.0511
9,CAGAAGGA,-0.354
10,GTCCATGA,-0.141
11,GCGCGACC,-0.0834
12,AACAGATG,-0.113
13,TTCTTAAA,0.0894
14,CAGTTAAA,0.182
15,AGCCCTCG,-0.207
16,CCGTATGC,-0.0603
17,CATGTGAG,-0.253
18,GCGATAAC,0.12
19,GGAAATCC,0.0204
20,GACGACGA,0.052
21,AAAAACCA,0.231
22,CGAACTAA,0.182
23,ACGGACTG,0.22
24,CGCCTGCA,-0.238
25,AAAGACAT,-0.0344

row,Sequence,PBM E-score
1,TACAAATA,0.303
2,ATACGTCG,-0.0997
3,CGACCATA,0.00102
4,AGCCCGCT,-0.241
5,AGACTGAG,-0.128
6,GGTATTAA,0.0491
7,AGGGGCAT,-0.318
8,AAAGTTAC,0.107
9,CATTTGTA,0.179
10,CGGACCAC,0.165
11,AAAGGATC,0.0741
12,CGTCATCC,-0.178
13,CCTGATCA,-0.239
14,ACGGTCAA,0.0456
15,CCGATTCG,0.163
16,CCTGGGAA,-0.229
17,ATAACCCG,-0.0563
18,AACGATAA,0.135
19,CATTACGA,-0.0227
20,GCACAAAA,0.224
21,GACTGTAC,-0.0623
22,CTCGCAAA,-0.171
23,GTCCCTAA,0.0506
24,ACCCTCTC,-0.124
25,CACCATCG,-0.434

row,Sequence,PBM E-score
1,AGGACGTC,-0.0423
2,AGCAGAGC,-0.288
3,AGCATCTC,0.131
4,CCTCTAAA,-0.248
5,ATAAAGGG,0.0706
6,GCCTTGCA,-0.23
7,ACAATGCC,0.0523
8,AATCACCT,0.052
9,AGAGCGGA,0.318
10,GTTTAGGA,-0.07
11,ATTGGCGA,-0.213
12,CTTGGATA,0.126
13,ACCAGTAG,-0.0953
14,AAGGGTCT,-0.114
15,AGTGTGAG,-0.023
16,CTGTACGA,0.124
17,CGCCACCG,-0.193
18,CAAATCCA,0.0214
19,ATCTCATC,0.00844
20,AGCCTCAT,-0.165
21,AAGGACTT,-0.00217
22,CATGGTTA,0.059
23,AAACTCTC,0.142
24,CGAACCCA,-0.062
25,GAGAAGCC,0.0597

row,Sequence,PBM E-score
1,TGCCCGAA,0.00332
2,GAAGTCGC,0.0503
3,CCACGGAA,0.178
4,GTATCCGA,-0.0454
5,ACGCCTTA,-0.303
6,CCAATAAG,-0.159
7,GCTGTGCC,-0.169
8,GAGCTACC,-0.0922
9,CATTGACC,-0.0262
10,ACTTCCAT,0.0535
11,GGGTCCTA,-0.134
12,GGTCGCAC,-0.197
13,ATTTTCCA,0.121
14,CGACAACA,-0.00636
15,CTTCATAA,0.131
16,AATACCGC,-0.0155
17,CCACTAGG,-0.293
18,CATATAAG,0.162
19,ACCGTATC,-0.0106
20,AGGCTAAG,-0.184
21,CGATTACC,-0.0591
22,TCAGAGAA,-0.165
23,CTTCGCTA,-0.0699
24,AGACAAAT,0.151
25,CTTCGGTA,0.0563

row,Sequence,PBM E-score
1,AGTTCGAA,0.11
2,CTCTCAAC,0.0279
3,CACTGACC,-0.0727
4,GTAACAAA,0.243
5,GCCTCTTA,0.0376
6,ACCTCACG,-0.214
7,GGTATCGA,-0.0556
8,CTAATGCC,-0.133
9,AACACAGG,-0.0723
10,AGAGGATG,0.0295
11,CGTGAACC,-0.0352
12,AGCGCACG,-0.0739
13,ACAGTAGG,-0.19
14,AGACTATC,-0.0367
15,ATTCAGTG,0.0284
16,AGGCGTGC,-0.131
17,TAGGGAGA,0.00032
18,CAGCCGAC,-0.187
19,ATTAGTTA,0.267
20,AGACCTGA,0.0487
21,CACGTCCA,-0.357
22,TCCTTAGA,-0.103
23,GCCTCTCC,-0.182
24,AATATTAG,0.192
25,GTCATCAC,-0.235

row,Sequence,PBM E-score
1,ATCGCGCA,-0.25
2,GAACACAA,-0.0156
3,AAGCCATC,0.0153
4,ATGCTGAA,0.012
5,ATCCCCTG,-0.265
6,ACTACAGA,0.17
7,ACTGCTTG,-0.0756
8,TGATATAA,0.222
9,CCGGCGAG,-0.0596
10,GAGGGAGC,-0.197
11,AGGTTTAA,0.149
12,AAAACGAG,0.0435
13,CGTCAGTA,-0.167
14,AAGTAGTA,0.0858
15,ATACTCCC,0.108
16,CGCGAATC,-0.0333
17,ACCAAGAA,0.0509
18,ATTTAGCA,0.108
19,TAGCAGAA,0.0384
20,AGGATGAG,-0.166
21,TTCGAAAA,0.198
22,AGGGAGAC,-0.0822
23,CCTCTGGC,-0.22
24,ACGTGGAA,-0.0834
25,AGCTTGTG,-0.156

row,Sequence,PBM E-score
1,GTTGCCCA,-0.131
2,GTGCTACA,-0.0297
3,CTTGGCCC,-0.318
4,GGATCCCC,-0.0631
5,CATCTGCA,-0.115
6,AGAATCAA,0.102
7,GTAATCCA,0.13
8,AACGGAAG,0.123
9,CCGTTCAA,0.232
10,CACGCTAG,-0.198
11,ACTCCATG,-0.0608
12,CCGAAACC,0.0583
13,AACTCATC,0.135
14,GGGCTAAC,-0.225
15,CGGCGTGC,0.112
16,GCAGAGCC,-0.254
17,CTATTGCC,-0.11
18,AACACTGA,0.0217
19,AAGCGGCG,-0.04
20,GAGTGGGC,-0.103
21,AATTCTGC,-0.0117
22,CACAACCA,0.0851
23,TACATCAA,0.107
24,CCGACTCG,0.0683
25,AGATTTGG,0.052

row,Sequence,PBM E-score
1,GCCTGTAC,0.0162
2,CACTTCGC,-0.203
3,CATGAAAA,0.0814
4,GGGAACCC,-0.101
5,CCGGCTCG,0.0953
6,CGACGAGA,-0.0273
7,CGGACACG,0.0466
8,AAGTATCC,-0.124
9,AACTGTAG,-0.0514
10,CGGGGGTC,-0.158
11,AAATACAA,0.238
12,AATAAGTC,0.0835
13,AGACCACT,-0.00453
14,GCCAGCGA,-0.231
15,AACTTATT,0.239
16,AACGGTTA,-0.0731
17,ACACTAGC,-0.252
18,AATAGTAT,0.233
19,CAATGAAG,-0.093
